Data as given in PubChem BioAssay AID504832 (National Center for Advancing Translational Sciences (NCATS), 2011).
In all, about 310,000 compounds went through this assay and about 18,000 (5.8%) were called active. The inconclusive results got no clear call from the source; some entries with a clear call stand among them for comparison. Calls follow the shape of the dose curve; as a rule, active = well fitted inhibition curve with a large enough effect; inconclusive = small, poorly fitted or top-dose-only effect, or another doubt; inactive = no such curve, though single readings can be large or run the other way. No potency is given beside an inconclusive call; the fits are too rough.

Assay: Primary qHTS for delayed death inhibitors of the malarial parasite plastid, 48 hour incubation
Details: P. falciparum luciferase growth in erythrocytes; series mostly up to 28.7 µM
In short: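 Here the parasites carry a stable luciferase gene and grow inside erythrocytes in Albumax-based RPMI medium with compound for one erythrocytic cycle. Activity is scored as loss of luminescent signal.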
Potency is read from the fitted curve at half-maximal effect; tags tell the direction and shape of the fitted curve.

Structure (SMILES) | Potency
Cc1ccc(C)c(S(=O)(=O)N2CCN(C(=O)c3ccncc3)CC2)c1 | inconclusive [inhibitor, single point]
S=C(NCCCN1CCOCC1)N(Cc1ccccc1)Cc1ccccc1 | inactive
CC(C)N1CCC(N2CCN(CCCc3ccccc3)CC2CCO)CC1 (stereo not given) | inconclusive [inhibitor, single point]
O=C(CCc1ccc(S(=O)(=O)N2CCCCC2)cc1)c1nnc(-c2ccccc2)o1 | inconclusive [inhibitor, single point]
Cc1ccc(-c2nnc(N(C)C(=O)c3ccccn3)s2)cn1 | inactive
O=C(N/N=C/C(Br)=C\c1ccccc1)c1ccco1 | active: 2.62 µM
CN(Cc1ccc(Cl)cc1)C(=O)CCl | inconclusive [inhibitor, partial curve]
CCn1c(N2CCN(Cc3ccc([N+](=O)[O-])cc3)CC2)nc2ccccc21 | inconclusive [inhibitor, single point]
O=C(NCCCN1CCCC1=O)c1cc(COc2ccc(F)cc2F)on1 | inactive
COc1cccc(C(C(=O)NC(C)(C)C)N(Cc2ccc(F)cc2)C(=O)CCC(=O)Nc2cc(C)on2)c1OC (stereo not given) | active: 13.1 µM
Oc1ccccc1N=Cc1c(O)ccc2ccccc12 | inconclusive [inhibitor, single point]
CCOC(=O)CC1=C(C(=O)OCC)C(c2ccncc2)C(C#N)=C(N)O1 (stereo not given) | inconclusive [inhibitor, single point]
COc1ccc(NC(=O)[C@@H](NC(=O)c2ccccc2)C(C)C)cc1S(=O)(=O)N1CCCCC1 | inconclusive [inhibitor, partial curve]
C/C(=N/NC(=O)c1cc(-c2ccccc2)nc2c(Cl)cccc12)c1cccnc1 | inconclusive [inhibitor, single point]
COC(=O)COc1ccc(S(=O)(=O)NCc2ccc3c(c2)OCO3)cc1 | inconclusive [inhibitor, partial curve, poor fit]
CCC1COCCS(=O)(=O)N1Cc1cccc(Cl)c1 (stereo not given) | inactive
COc1cc(CNc2ccc(CNc3ncn[nH]3)cc2)cc(Cl)c1OCc1ccccc1 | inconclusive [inhibitor, single point]
CC(=O)CC(c1ccccc1)S(=O)(=O)c1ccc(C)cc1 (stereo not given) | inconclusive [inhibitor, full curve, poor fit]
O=C(O)c1cccc(CSc2ncn[nH]2)c1 | inactive
CCOc1cccc(N2C(=O)CC(N3CCN(c4nc5ccccc5s4)CC3)C2=O)c1 (stereo not given) | inconclusive [inhibitor, single point]
